# Data: the supplement of paper PMC10600219
# Structures can show the parent of a compound that is named as a salt. The full ranking holds about 2,800 compounds; the median of “cell viability relative to vehicle” is about 0.98, and the lowest 2% start at about 0.45. This is one part of the list.
# System: NCI-H2228 alectinib-DTP
# Assay: cell viability relative to vehicle (fraction of vehicle); NCI-H2228 is an ALK-positive lung cancer line and DTP means drug-tolerant persister; higher = less growth inhibition
# Conditions: 100 nM; treatment time 6 days
# Method in brief: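 Each value is viability relative to vehicle-treated cells, measured as ATP with the CellTiter-Glo 3D Cell Viability Assay. Parental NCI-H2228 cells and drug-tolerant persisters (1000 nM targeted drug, 13 days) in 384-well plates received the 3114-agent TargetMol anti-cancer compound library at 100 nM, or DMSO, and were read 6 days later.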
row,Structure (SMILES),cell viability
1,CCc1nc(N)nc(N)c1-c1ccc(Cl)cc1 [Pyrimethamine],0.969
2,CC(C)NCC(O)COc1ccc(CCOCC2CC2)cc1 (centres undefined) [Betaxolol hydrochloride],1.04
3,CN1CC(=O)N2[C@H](c3ccc4c(c3)OCO4)c3[nH]c4ccccc4c3C[C@@H]2C1=O [Tadalafil],0.916
4,O=C(O)c1cn(C2CC2)c2cc(N3CCNCC3)c(F)cc2c1=O [Ciprofloxacin],0.874
5,O=C(O)c1cn(C2CC2)c2cc(N3CCNCC3)c(F)cc2c1=O [Ciprofloxacin hydrochloride],1.01
6,C/C=C(\C)C(=O)OC1c2c(ccc3ccc(=O)oc23)OC(C)(C)C1OC(=O)/C(C)=C/C (centres undefined) [Praeruptorin B],1.02
7,CN/C(=C\[N+](=O)[O-])NCCSCc1ccc(CN(C)C)o1 [Ranitidin],1.04
8,COc1ccc(-c2cc(=S)ss2)cc1 [Anethole trithione],0.97
9,COc1cc(OC2CCN(C)CC2)ccc1Nc1ncc2c(n1)n(C1CCCC1)c(=O)n2C,0.854
10,C/C(=C\c1csc(C)n1)[C@@H]1C[C@@H]2O[C@]2(C)CCC[C@H](C)[C@H](O)[C@@H](C)C(=O)C(C)(C)[C@@H](O)CC(=O)N1 [Ixabepilone],0.454
11,C#CCN[C@@H]1CCc2ccccc21 [Rasagiline],1.05
12,CCc1cc2c(cc1N1CCC(N3CCOCC3)CC1)C(C)(C)c1[nH]c3cc(C#N)ccc3c1C2=O [Alectinib],1.01
13,CCc1c2c(nc3ccc(O)cc13)-c1cc3c(c(=O)n1C2)COC(=O)[C@]3(O)CC,0.263
14,O=C(NCC1(c2nc(-c3ccccc3)cs2)CCOCC1)c1cccc(-c2noc(C(F)(F)F)n2)c1,0.89
15,Cc1ccc(NC(=O)c2ccc(CN3CCN(C)CC3)cc2)cc1Nc1nccc(-c2cccnc2)n1 [Imatinib],1.02
16,Cc1ccc(NC(=O)c2ccc(CN3CCN(C)CC3)cc2)cc1Nc1nccc(-c2cccnc2)n1 [Imatinib Mesylate],1.01
17,O=C(O)C(=O)O.[NH-][C@@H]1CCCC[C@H]1[NH-].[Pt+2] [Oxaliplatin],1.15
18,COc1cc2c(cc1OC)CC(=O)N(CCCN(C)C[C@H]1Cc3cc(OC)c(OC)cc31)CC2 [Ivabradine hydrochloride],0.954
19,Cc1ccc(-c2cn3c4c(sc3n2)CCCC4)cc1 [Pifithrin-β hydrobromide],0.913
20,CC(C)=CCC[C@](C)(O)[C@H]1CC[C@]2(C)[C@@H]1[C@H](O)C[C@@H]1[C@@]3(C)CC[C@H](O)C(C)(C)[C@@H]3CC[C@]12C [(20S)-Protopanaxadiol],0.908
21,CC(C)(C)OC(=O)c1ncn2c1C(C)(C)Nc1ccccc1-2,1.12
22,CC(C)(O)c1cc(Nc2cc(Oc3cn(C4CC4)nc3C3CCOCC3)ccn2)ccn1,1
23,CCOC(=O)c1cnc2ccc(-c3cncc(NS(=O)(=O)c4ccccc4)c3)cn12,1
24,NC(=O)CCC(N)C(=O)O (racemic) [DL-Glutamine],0.959
25,COc1cc2c(c(OC)c1OC)-c1c(cc3c(c1OC)OCO3)CC(C)C(C)C2 (centres undefined) [Schizandrin B],0.955

row,Structure (SMILES),cell viability
1,c1cnc(N2CCN(Cc3ccc4c(c3)OCO4)CC2)nc1 [Piribedil],0.838
2,C[C@@H](Nc1cc(F)cc(F)c1)c1cc(C(=O)N(C)C)cc2c(=O)cc(N3CCOCC3)oc12,0.804
3,CC1=C(C(=O)Nc2ccc3[nH]ncc3c2)C(c2ccc(F)cc2)NC(=O)N1 (centres undefined),1.09
4,COC(=O)/C=C/c1cccc(N(Cc2ccc(-c3ccc(N(C)C)cc3)cc2)C(=O)C2CCCCC2)c1 [Fexaramine],0.993
5,COc1cc(C(=O)N2CCC(N3CCN(C)CC3)CC2)ccc1Nc1ncc2c(n1)N(C)c1ccccc1C(=O)N2C,0.99
6,Clc1ccc(C(Cn2ccnc2)OCc2ccsc2Cl)c(Cl)c1 (centres undefined) [Vagistat],1.15
7,CC1(C)O[C@H]2CC(=O)OC[C@]23[C@H]2CC[C@@]4(C)[C@H](c5ccoc5)OC(=O)[C@H]5O[C@]54[C@]2(C)C(=O)C[C@@H]13 [Limonin],0.968
8,CC/C(=C(\c1ccc(O)cc1)c1ccc(OCCN(C)C)cc1)c1ccccc1 [4-Hydroxytamoxifen],0.815
9,CC12CCC(CC1=O)C2(C)C [D-Camphor],1.14
10,CN[C@@H]1[C@@H](O[C@H]2O[C@H](CO)[C@@H](N)[C@H](O)[C@H]2O)OC2C[C@@H](N)[C@@H](O[C@H]3[C@H](O)[C@@H](O)[C@H](N)C[C@@H]3N)OC2[C@@H]1O (some centres undefined) [Apramycin sulfate],1.09
11,CCN(CC)CCNc1ccc(C)c2sc3ccccc3c(=O)c12 [Lucanthone],0.888
12,C[C@H](N=C(NC#N)Nc1cccc2ncccc12)c1ccccc1,1
13,Cc1cc(C)c(CNC(=O)c2cc(-c3ccc(CN4CCOCC4)cc3)cc3c2cnn3C2CCCC2)c(=O)[nH]1,1.08
14,CCCCCCCCCCCCCCCCCCCCCCO [n-Docosanol],1.01
15,NS(=O)(=O)c1ccc(NC2=CC(=O)c3ccccc3C2=O)cc1,1.07
16,CC(=O)NC(Cc1ccccc1)C(=O)O (centres undefined) [Afalanine],0.984
17,CC(C)C[C@@H](C(=O)N[C@H](C(=O)OC1CCCC1)c1ccccc1)[C@H](O)C(=O)NO [Tosedostat],0.959
18,CCCCCCOC(=O)NC(=N)c1ccc(NCc2nc3cc(C(=O)N(CCC(=O)OCC)c4ccccn4)ccc3n2C)cc1 [Dabigatran etexilate],1.14
19,NCCCC(=O)O [4-Aminobutyric acid],1.08
20,Cc1c(-c2ccccc2)oc2c(C(=O)OCCN3CCCCC3)cccc2c1=O [Flavoxate hydrochloride],1.21
21,CC[C@@](C)(Nc1ccnc(-c2c[nH]c3ncccc23)n1)C(=O)NCC(F)(F)F [Decernotinib],0.997
22,O=C1C[C@@H](c2ccc(O)c(O)c2)Oc2cc(O)cc(O)c21 [Eriodictyol],1.19
23,NC(=O)c1cnc(N[C@@H]2CCCC[C@@H]2N)nc1Nc1cccc(-n2nccn2)c1,0.887
24,NS(=O)(=O)c1cc2c(cc1Cl)NC(C(Cl)Cl)NS2(=O)=O (centres undefined) [Trichlormethiazide],1.05
